Results: PubChem BioAssay AID1508623 (National Center for Advancing Translational Sciences (NCATS), 2021)
The whole screen tested about 48,000 compounds, of which about 450 (0.94%) were called active. About 19% were inconclusive and are not listed. Calls come from the whole dose curve; as a rule, active = well fitted inhibition curve with a large enough effect; inconclusive = small, poorly fitted or top-dose-only effect; inactive = no such curve, though single readings can be large or run the other way. The list shows a part of the results.

assay: Primary qHTS for Identification of Small Molecule Inhibitors of Huntingtin Promoter Activity; settings: HEK293 HTT promoter firefly luciferase reporter (activity 0% = vehicle and -100% = no light), 24 h; series mostly up to 57.5 µM; activity change, negative = inhibition: at the top concentration; note: nearly all actives have a fitted effect of over 50% in size
How it was run: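 HEK293 Fluc reporter, 2,500 cells/well, 24 h pre-culture; cpds up to 57.5 uM final, 24 h 37 degrees C; Dual-Glo, 10 min RT; normalized vehicle = 0%, zero RLU = -100%.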

Activity change, negative = inhibition, inactive:
COC(=O)Cc1c(C)c2ccc3c(c2oc1=O)CN(Cc1ccc(C)cc1)CO3 -5.8%
COc1ccc(-n2nnnc2SCC(=O)NCCc2ccccc2)cc1 -3.84%
CCOc1ccc(CCNC(=O)CCn2c(=O)c3cccn3c3ccc(F)cc32)cc1 -8.8%
Cc1ccc(NC(=O)Cn2nc(C(F)(F)F)c3c2CCC3)cc1C -28.7%
CCOc1ccc(C(=O)NCCc2sc(-c3cccc(F)c3)nc2C)cc1OCC -32.6%
Cc1ccc(C2=NN(CCC(=O)NCCc3cccc(C)c3)C(=O)CC2)cc1 -18.7%
CC(=O)Nc1cccc(-c2nnc(SCC(=O)c3ccc([N+](=O)[O-])cc3)o2)c1 -24.1%
COc1ccc(OC)c(CNC(=O)c2cnc(N(C)C)nc2)c1 -13.8%
CCOc1ccccc1/C=C/c1onc(C)c1S(=O)(=O)N1CCC(C(=O)N2CCCCC2)CC1 -11.8%
Cc1ccc(-n2nc(C)c3c(C(=O)Nc4ccc(C)cc4Cl)cc(C)nc32)cc1 -5.41%
CCOC(=O)CSc1nc(-c2ccc(OC)cc2)cc(C(F)(F)F)c1C#N -17.2%
COc1ccc(-n2nc(C(=O)N3CCN(c4cccc(C)c4)C(C)C3)c3c4ccccc4n(C)c3c2=O)cc1Cl (stereo not drawn) -9.89%
COc1cccc(-n2c(=O)c3c4c(sc3n(Cc3ccccc3C#N)c2=O)CCCC4)c1 9.2%
Cc1ccccc1-c1noc(-c2ccc(NC3CCCC3)c([N+](=O)[O-])c2)n1 -6.83%
O=S(=O)(c1ccc2nc(Nc3ccc(Br)cc3F)ccc2c1)N1CCCC1 3.9%
CCc1nnc(NC(=O)c2nc(SCc3ccc(F)cc3)ncc2Cl)s1 -16.2%
O=C(O)/C=C\C(=O)O -2.15%
CCOc1ccc(OCC)c(NS(=O)(=O)c2ccc3c(c2)CCCN3C(C)=O)c1 -21.3%
CCCCn1c(C2CC(=O)N(c3ccc(OCC)cc3)C2)nc2ccccc21 (stereo not drawn) -13.3%
O=C(OCC1CCCO1)c1ccc2c(c1)N(Cc1c(F)cccc1Cl)C(=O)c1ccccc1S2(=O)=O (stereo not drawn) -9.25%
Cc1cc(C)c(NC(=O)c2ccc3nc(C(C)C)oc3c2)c(C)c1 -24.4%
COCC(C)NC(=O)C1=CC(c2ccc3c(c2)OCO3)=NS(=O)(=O)N1C (stereo not drawn) -18.2%
CCC(C(=O)NC1CCCCC1)n1nc(C)c2sc3ccccc3c2c1=O (stereo not drawn) -6.04%
Cc1ccc(Cl)cc1N1CCN(C(=O)c2cnc3c(-c4ccc(F)cc4)c(C)nn3c2C)CC1 -9.12%
O=C(Cn1cc(SCc2ccc(F)cc2)c2ccccc21)N1CCCC1 15.7%
CCN(CC)S(=O)(=O)c1ccc2c(c1)c(=O)c(C(=O)N1CCN(c3cc(C)ccc3C)CC1)cn2C -20.1%
Cc1cccc(-c2nc(S(=O)(=O)c3ccccc3)c(N3CCN(c4ccccc4)CC3)o2)c1 1.53%
CSc1ccc(-c2nc3cc(C)ccn3c2Nc2ccc(C)cc2)cc1 17.9%
CCc1ccc(NC(=O)C(=O)NCCc2sc(-c3ccc(C)cc3)nc2C)cc1 -9.28%
Cn1ccc2c(OCC(=O)NCc3ccc(F)cc3)cccc2c1=O -16.5%
COc1c(Cl)cc(Cl)cc1C(=O)Nc1cccc2cccnc12 -11.6%
Cc1ccc(C(=O)c2cn(Cc3ccccc3)c3cc4c(cc3c2=O)OCCO4)cc1 5.11%
CCc1cccc(NC(=O)CSc2nccn2C)c1 4.1%
CCOC(=O)c1cc(S(=O)(=O)Nc2cc(C)c(Cl)cc2OC)[nH]n1 -16.2%
CC(=O)c1ccc(NC(=O)CSc2nnc(NC(=O)NC3CCCCC3)s2)cc1 17.4%
Cc1cccc(Cn2c(CNC(=O)c3ccccc3)nc3ccccc32)c1 -21.5%
CC(C)OCCCNC(=O)c1c2c(nc3ccccc13)C(=O)N(C1CCCCC1)C2 -8.19%
Cc1ccn2c(Nc3ccc(C(C)C)cc3)c(-c3ccsc3)nc2c1 0.559%
CCOC(=O)c1cc(-c2ccccc2)n(CC(=O)Nc2cc(Cl)c(OC)cc2OC)c1C 2.1%
CCCCCOc1ccccc1Cn1c(=O)oc2ccc(C)cc21 -6.21%
Cc1nn(C(C)C(=O)Nc2cccc(F)c2)c(=O)c2c1sc1ccccc12 (stereo not drawn) -21%
Cc1ccc(Nc2c(-c3ccc(N4CCOCC4)cc3)nc3ncccn23)c(C)c1 -10.5%
COCCNC(=O)CCSc1nc(-c2ccc(OC)cc2)cc(C(F)(F)F)n1 -20%
CC1CCCN(Cc2c(O)ccc3c(=O)c(-c4ccccc4Cl)c(C(F)(F)F)oc23)C1 (stereo not drawn) -7.88%
Cc1ccccc1C(OCCN(C)C)c1ccccc1 (stereo not drawn)
Cc1cc(C)c(NS(=O)(=O)c2ccc3c(c2)NC(=O)CCS3)c(C)c1 -26.1%
Cc1c(I)c(=O)n(-c2ccccc2)n1C -5.62%
O=C(COc1ccc(Cl)cc1)N(Cc1ccco1)c1ccccn1 -9.16%
O=C(CSc1oc(-c2ccco2)nc1S(=O)(=O)c1ccc(Br)cc1)c1ccccc1 -19.5%
CCC(=O)C1=C(c2ccc(Cl)cc2)N(C(=O)CC)n2c(C)nnc2S1 -23.2%
CCCCn1c(=O)c2oc3ccccc3c2n(Cc2cccc(F)c2)c1=O -8.96%
CCC(C)Cn1c(/C=C/c2ccccc2)nc2ccccc21 (stereo not drawn) -21.5%
CCOC(=O)c1cccc(NC(=O)c2cc3c(=O)n(C)c4ccccc4c3n2C)c1 0.697%
Cc1ccc(CNC(=O)CCN2C(=O)COc3ccc(C)cc32)cc1 -9.4%
Cc1ccc(NC2=C(CC(=O)O)C(c3ccc(F)cc3)N(c3ccc(C)cc3)C2=O)cc1 (stereo not drawn) 26.6%
CCN(CC)CCOC(=O)c1ccc(NC(=O)c2nn(C)c3c2COc2ccccc2-3)cc1 29.6%
Cc1cncc2cccc(S(=O)(=O)N3CCCN(C(=O)CN)C[C@@H]3C)c12 -12.9%
CC(C)c1cnc2c(c1SCC(=O)Nc1ccc(OC(F)(F)F)cc1)c(=O)n(C)c(=O)n2C -12.4%
O=C(CCCN1C(=O)c2cccnc2Oc2ccc(Cl)cc21)NCc1ccccc1F -8.64%
CCc1ccc(N2CCn3c2nc2c3c(=O)n(C/C=C/c3ccccc3)c(=O)n2C)cc1 -1.93%
COc1ccc(NC(=O)c2c(NCc3ccc(N(C)C)cc3)sc3c2CCC3)cc1 -1.94%
Cc1ccc(Nc2ncc(C(=O)N3CCN(c4ccc(F)cc4)CC3)c3ccccc23)cc1Cl -27.9%
CCOc1ccc(-c2nonc2NC(=O)c2oc3cc(C)c(C)cc3c2C)cc1OCC -21.3%
Cc1ccc(C)c(-n2c3nc(=O)[nH]c(=O)c-3cc3c(C)nn(-c4ccccc4)c32)c1 -13.2%
COc1cccc(CNS(=O)(=O)c2cc3[nH]c(=O)c(=O)[nH]c3cc2C)c1 1.23%
CCc1ccc2oc(C(=O)Nc3c(C)n(C)n(-c4ccccc4)c3=O)cc(=O)c2c1 -14.1% [at 11.5 µM]
Cc1ccccc1Cn1c2ccccc2c2cnn(CC(=O)NC(C)CCc3ccccc3)c(=O)c21 (stereo not drawn) 1.72%
CCOC(=O)c1ccc(N2C(=O)c3n[nH]c(C)c3C2c2ccccc2OC)cc1 (stereo not drawn) -9.92%
N#Cc1ccc(C(=O)NCc2ccc3c(c2)CCN3C(=O)c2ccc(F)cc2)cc1 -3.63%
Cc1cccc(Cn2nc(C)n3c(cc4cc(C)ccc43)c2=O)c1 -2.68%
Cc1ccc(C)c(N2CCN(c3ccc4cc(S(=O)(=O)N5CCC(C)CC5)ccc4n3)CC2)c1 -8.65%
CCOc1ccc(C(=O)NCCc2sc(-c3ccc(OC)c(OC)c3)nc2C)cc1 0.097%
Cc1ccccc1OCC(=O)Nc1sc2c(c1C(=O)OC(C)C)CCCC2 -1.56%
CCOc1ccc(-n2c(SCC(=O)N3CCC(C)CC3)nc3c([nH]c4ccccc43)c2=O)cc1 -7.31%
CCCOc1ccc(C(=O)Nc2cc3c(cc2N2CCOCC2)n(C)c(=O)n3C)cc1 0.0622%
Cc1cccc(-n2c(=O)c3c(c4cc(C)ccc4n3C)n(CC(=O)NCC3CCCO3)c2=O)c1 (stereo not drawn) -12.4%
Cc1ccc2c(c1)c(=O)c1ccccc1n2CCCC(=O)Nc1cc(Cl)ccc1C -24.4%
Cc1nn(CC(=O)O)c(=O)c2cc3cc(F)ccc3n12 0.361%
COc1ccccc1NC(=O)c1cc(S(=O)(=O)N2CCN(c3ccccc3Cl)CC2)ccc1F -7%
O=C(Nc1cc(Cl)cc(Cl)c1)c1ccc2c(c1)N(Cc1cccc(Cl)c1)C(=O)c1ccccc1S2=O (stereo not drawn) 16.7%
COC(=O)c1ccc(C2c3c(oc4ccccc4c3=O)C(=O)N2c2nc(C)c(C(=O)OC)s2)cc1 (stereo not drawn) -12.2% [at 11.5 µM]
COc1ccc2c(CNCc3cccs3)c(C(=O)O)n(Cc3ccc(C)cc3)c2c1 -16.5%
CN1CCN(c2c(F)cc3c(=O)c(C(=O)O)cn4c3c2SCC4)CC1 -7.12%
COc1ccc(NC(=O)Cn2c(=O)n(Cc3nc(-c4ccccc4)no3)c(=O)c3cc4c(cc32)OCO4)c(OC)c1 -8.66%
O=C(Nc1ccc2oc(-c3cccnc3)nc2c1)c1ccc(Br)cc1 -25.5%
Cc1nn(CC(=O)NCc2ccc(Cl)cc2)c(=O)c2cc3sccc3n12 -2.16%
Cc1ccc(CN2CCCn3nc(C(=O)NC(C)C)cc3C2=O)cc1 -3.67%
CC(=O)c1ccc(NC(=O)C2Cc3ccccc3N2C(=O)c2ccccc2)cc1 (stereo not drawn) -12.9%
CC(=O)Nc1nonc1-c1nnc(SCC(=O)Nc2cccc(F)c2)n1-c1ccccc1 -21.2%
COC(=O)c1scc(-c2ccc(C)cc2)c1S(=O)(=O)Nc1ccc(F)cc1F -25.7%
COc1ccc(C)cc1NC(=O)Cn1c(=O)c(C(F)(F)F)nc2ccccc21 -6.67%
CN(C)S(=O)(=O)c1ccc2c(c1)N(CC(=O)NCc1ccc(F)cc1)C(=O)CS2 -1.67%
COc1ccccc1N1CCN(c2ccc(=O)n(CC(=O)NCc3ccc(OC(C)C)cc3)n2)CC1 -19.2%
Cc1ccc(NC(=O)Cn2cc3c(n2)CCCC3)c(Cl)c1 -0.86%
CNc1c2c(nn1C)CCCC2 9.67%
Cc1nn(C)c2c1c(C(F)(F)F)cc(=O)n2CC(=O)NCCC(C)C -14.4%
COc1ccc(-c2cc3ccc(O)c(CN4CCC(C)CC4)c3oc2=O)cc1 -10.2%
COc1ccc(-n2nc(C(=O)Nc3cc(OC)c(OC)c(OC)c3)c(=O)n(C)c2=O)cc1 7.11%
